Among all 270,000 compounds or so, about 620 (0.23%) were called active. The shares of active, inactive and inconclusive entries below differ from those in the screen. The call rests on the fitted dose curve; in most records, active means well fitted inhibition curve with a large enough effect in the polarisation, with a control signal flat (not every such curve was filed as active); inconclusive means small, poorly fitted or top-dose-only effect, or effect the other way, or a change in a side signal; inactive means no such curve, though single readings can be large or run the other way; the % refers to the polarisation. Potencies of inconclusive entries are doubtful fits and often do not repeat. “Side channel” marks fits to a control or component signal instead of the main read-out.
Target: Menin (Homo sapiens) (UniProt O00255)
Chain of UniProt O00255 (O00255 whole entry, looked up): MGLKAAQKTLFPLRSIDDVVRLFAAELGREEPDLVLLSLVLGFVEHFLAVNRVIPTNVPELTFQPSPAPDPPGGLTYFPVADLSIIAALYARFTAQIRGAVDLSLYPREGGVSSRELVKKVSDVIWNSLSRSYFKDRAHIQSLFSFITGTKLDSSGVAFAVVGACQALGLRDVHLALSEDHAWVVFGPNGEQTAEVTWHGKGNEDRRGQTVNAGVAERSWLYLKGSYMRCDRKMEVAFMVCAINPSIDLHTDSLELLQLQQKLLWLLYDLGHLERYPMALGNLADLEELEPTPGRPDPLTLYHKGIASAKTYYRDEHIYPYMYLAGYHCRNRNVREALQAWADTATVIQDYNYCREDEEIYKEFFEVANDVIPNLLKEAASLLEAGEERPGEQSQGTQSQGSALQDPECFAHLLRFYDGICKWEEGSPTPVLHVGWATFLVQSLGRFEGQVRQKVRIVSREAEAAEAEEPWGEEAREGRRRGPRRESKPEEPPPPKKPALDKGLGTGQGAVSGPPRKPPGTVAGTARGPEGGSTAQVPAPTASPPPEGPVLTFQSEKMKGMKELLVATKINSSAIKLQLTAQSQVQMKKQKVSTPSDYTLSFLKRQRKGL
Assay: qHTS Assay for Inhibitors Targeting the Menin-MLL Interaction in MLL Related Leukemias: Competition With Texas Red Labeled MLL-derived Mutant Peptide; on FP activity change, negative = inhibition: % of control where 0% means no effect
Conditions: fluorescence polarization; FP activity change, negative = inhibition: at 61.6 µM (top of the series)
Potency means the concentration at half of the fitted maximal effect; tags describe the fitted curve by direction and shape or compound fluorescence and quenching.

Potency, inconclusive:
CCc1cc2cc(C)ccc2nc1SCC(=O)NC1CCCC1 12.6 µM [fluorescent, side channel, partial curve]
Fc1ccc(NC(=S)Nc2cccc3cnccc23)cc1 20 µM [quencher, side channel, partial curve]
CCOc1ccccc1N1CCN(Cc2ccc(Br)s2)CC1 8.91 µM [inhibitor, partial curve]
Oc1c(C(Nc2cccc(C(F)(F)F)c2)c2ccncc2)ccc2cccnc12 (stereo not drawn) 20 µM [quencher, side channel, partial curve]
N/C(=N\OC(=O)Cc1ccccc1[N+](=O)[O-])c1ccc(Br)cc1 14.1 µM [quencher, side channel, partial curve]
N#CCCn1c(=O)c(CCc2ccccc2)nc2cnc(Oc3cccc(Cl)c3)nc21 8.91 µM [quencher, side channel, single point]
COc1ccc(/C=N/NC(=O)c2cccc(NC(C)=O)c2)c(OC)c1 22.4 µM [inhibitor, single point]
COc1cccc(NC(=O)NCC2CCN(Cc3ccc(F)cc3)CC2)c1 12.6 µM [inhibitor, partial curve]
COc1ccc(/C=C/C(=O)N2CCN(S(=O)(=O)/C=C/c3ccccc3)CC2)cc1OC 28.2 µM [fluorescent, side channel, partial curve]
Nc1nc(Nc2ccccc2)nc(NC2CCCCC2)c1[N+](=O)[O-] 10 µM [quencher, side channel, partial curve]
CCCN1CCC(NC(=S)Nc2ccc(S(N)(=O)=O)cc2)CC1 39.8 µM [quencher, side channel, partial curve]
Cc1ccc2nc(SCC(=O)Nc3cc([N+](=O)[O-])ccc3F)[nH]c2c1 25.1 µM [quencher, side channel, single point]
C=CCNc1nc2c(c(=O)[nH]c(=O)n2C)n1CCCc1ccccc1 28.2 µM [inhibitor, single point]
O=C(CCCn1c(SCC(=O)c2ccc(F)cc2)nc2ccccc2c1=O)NCc1ccco1 12.6 µM [fluorescent, side channel, partial curve]
O=C(O)c1cc([N+](=O)[O-])ccc1NCc1ccccc1 28.2 µM [quencher, side channel, single point]
Nc1nc(N)c(C=Nc2ccc(Br)cc2)c(Nc2ccc(Br)cc2)n1 3.16 µM [quencher, side channel, full curve, poor fit]
O=C(Nc1nccs1)c1ccc(Cl)c(S(=O)(=O)N2CCCCC2)c1 25.1 µM [quencher, side channel, partial curve]
O=[N+]([O-])c1cc(Br)c(O)c(/C=N/Nc2nc3ccccc3s2)c1 1.41 µM [quencher, side channel, full curve]
COc1ccccc1N(CC(=O)NC1CCCCC1)C(=O)CCC(=O)Nc1ccccn1 15.8 µM [inhibitor, partial curve]
COc1ccccc1OCCCOc1cccc(/C=C2\SC(=O)NC2=O)c1 31.6 µM [quencher, side channel, single point]
CC(C)Cc1nnc(NC(=O)CCc2c[nH]c3ccccc23)s1 22.4 µM [quencher, side channel, single point]
Cc1cc(C(=O)Oc2cccnc2)ccc1[N+](=O)[O-] 12.6 µM [fluorescent, side channel, partial curve]
Cc1ccc(-c2nnc(N3CCC(C)CC3)c3ccccc23)cc1C 7.94 µM [fluorescent, side channel, full curve]
CCOc1cccc(=O)c2c(C)n(Cc3ccco3)c(C)c12 25.1 µM [quencher, side channel, single point]
CCc1ccc(CN(C)C(C)C(=O)NCc2ccccc2)cc1 (stereo not drawn) 8.91 µM [inhibitor, full curve]
O=c1c(O)c(-c2ccccc2)oc2cc(O)ccc12 3.16 µM [quencher, side channel, full curve]
Nc1nonc1C(=O)N/N=C/c1ccc(-c2cccc([N+](=O)[O-])c2)o1 28.2 µM [quencher, side channel, single point]
Cc1ccc(NC(=O)c2ccc(NCCc3ccccc3)c([N+](=O)[O-])c2)cc1F 12.6 µM [quencher, side channel, partial curve]
COc1ccc(NS(=O)(=O)c2cc(NC(=O)Cc3cccs3)ccc2C)cc1 22.4 µM [quencher, side channel, single point]
c1ccc(-c2ccccc2OCCCCN2CCCCCC2)cc1 10 µM [inhibitor, partial curve]
NS(=O)(=O)c1ccc(N/N=C/c2cn(-c3ccccc3)nc2-c2cccs2)cc1 10 µM [quencher, side channel, partial curve]
COc1cc(NC(=O)C(C)Oc2ccccc2)c(C(=O)O)cc1OC (stereo not drawn) 25.1 µM [inhibitor, partial curve]

FP activity change, negative = inhibition, inactive:
CCc1ccc2c(CN3CCN(Cc4ccccc4)CC3)cc(=O)oc2c1 -15.2%
Cc1cc(N)n(-c2ccc([N+](=O)[O-])cc2)n1 -0.724%
O=C(NC(=S)NCc1ccccc1)C1CCCCC1 7.12%
COc1ccc(Nc2ccnc3ccccc23)cc1 0.816%
Oc1ccccc1CNc1ccc(Br)cn1 22.5%
CCOC(=O)Nc1ccc2c(c1)N(C(=O)CN(CC)CC)c1ccccc1CC2 -1.6%

Source: PubChem BioAssay AID1768 (National Center for Advancing Translational Sciences (NCATS), 2009)
